# Measurements reported in PubChem BioAssay AID1346428 (National Center for Advancing Translational Sciences (NCATS), 2018).
# Where “and” joins values, the source holds several entries; their conditions need not be identical. Identical values can stand only once. The whole screen tested about 48,000 compounds, of which about 1,200 (2.5%) were called active. Roughly 2% stayed inconclusive and do not appear here.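 The calls were made as follows: active = activation of at least 60% and not above a set upper limit (about 1 call in 100 departs from these limits); inconclusive = activation of 40% to 60%, or above that upper limit; inactive = activation under 40%.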 The list shows a part of the results.
# Target: Probable G-protein coupled receptor 32 (Homo sapiens) (UniProt O75388)
# Chain of UniProt O75388 (O75388 whole entry, looked up): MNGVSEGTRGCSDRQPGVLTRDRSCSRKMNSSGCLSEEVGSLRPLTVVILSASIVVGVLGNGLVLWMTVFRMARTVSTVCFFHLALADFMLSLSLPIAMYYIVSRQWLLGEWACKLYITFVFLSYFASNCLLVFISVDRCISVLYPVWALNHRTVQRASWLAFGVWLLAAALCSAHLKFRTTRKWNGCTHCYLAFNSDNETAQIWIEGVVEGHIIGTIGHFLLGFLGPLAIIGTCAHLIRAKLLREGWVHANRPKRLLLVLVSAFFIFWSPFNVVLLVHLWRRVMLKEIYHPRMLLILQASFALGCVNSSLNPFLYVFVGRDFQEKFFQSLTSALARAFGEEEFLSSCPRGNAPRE
# Test: qHTS for Agonists of Human Resolvin D1 Receptor DRV1; also: 0% is about no effect
# Conditions: CHO-K1 GPR32 beta-arrestin PathHunter luminescence, 90 min; at 76.9 µM; stronger effect = higher value; zero percent set by DMSO-only wells
# Procedure, shortened: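 Step 1: seed CHO-K1 GPR32 beta-arrestin cells, 2,500/well, overnight at 37 °C. Step 2: add compounds, 90 min at 37 °C. Step 3: detection reagent, 1 h ambient, then luminescence.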
row,SMILES,activation
1,CCOc1ccc(NC(=O)c2cc3c(s2)-c2ccccc2OC3)cc1,inactive: 4.29%
2,O=C(Nc1nnc(S(=O)(=O)N2CCCCCC2)s1)c1ccccc1Cl,inactive: 23.2%
3,COc1cc(OC)c(NC(=O)N2CCc3c(sc4c3CCCC4)C2c2ccccc2)cc1Cl (stereo not drawn),inactive: 28.2%
4,COc1cc(N)c(Cl)cc1C(=O)NC1CCN(Cc2ccccc2)CC1,inactive: -13.5%
5,COc1ccccc1N1CCN(c2ccc(-c3nc(-c4ccccc4C)no3)cc2[N+](=O)[O-])CC1,inactive: 0.577%
6,COc1ccccc1Cc1nc2ccccc2nc1SCC(=O)N1CCc2ccccc21,inactive: -6.54%
7,Cc1cccc(-c2nc(CSCC(=O)N3CCN(c4ccccc4)CC3)c(C)o2)c1,inactive: -1.42%
8,CCC(C)NC(=O)C1CCN(C(=O)c2ccc(-n3ccc4ccccc43)s2)CC1 (stereo not drawn),inactive: 10.9%
9,COc1ccccc1CCNC(=O)Cc1c(C)c2c(cc(C)c3c(C)c(C)oc32)oc1=O,inactive: -7.99%
10,FC(F)(F)c1cccc(-c2nnn3c2nc(NC2CCCCC2)c2ccccc23)c1,inactive: 23.8%
11,Cc1cccc(N2CCN(C(=O)Cn3cnc4sc(C)c(S(=O)(=O)N5CCN(c6ncccn6)CC5)c4c3=O)CC2C)c1 (stereo not drawn),inactive: -6.44%
12,CCOC(=O)c1ccc(NC(=O)CSc2nccn2-c2ccc(OCC)cc2)cc1,inactive: 8.32%
13,COc1ccc(NC(=O)C(C)n2nnc3sc(-c4ccccc4)cc3c2=O)cc1Cl (stereo not drawn),inactive: 16.8%
14,COc1cc([N+](=O)[O-])ccc1NC(=O)N1CCN(c2cc(-c3noc(C)n3)ccc2C)CC1,inactive: -6.34%
15,CCOc1ccccc1CNC(=O)C1CCN(S(=O)(=O)c2c(C)noc2/C=C/c2ccc(C)cc2)CC1,inactive: -21.3%
16,COc1cccc(NC(=O)C(=O)NCCc2csc(-c3ccc(C(F)(F)F)cc3)n2)c1,inactive: -19%
17,CCOc1ccc(CCNC(=O)c2cc(=O)[nH]c3ccc(S(=O)(=O)N4CCCCC4)cc23)cc1OCC,inactive: -10.9%
18,CCSc1nc(-c2ccc(Cl)cc2)nc2c1Cc1c(CO)cnc(C)c1O2,inactive: 33%
19,COc1ccccc1CNC(=O)CCC1N=C2c3ccccc3N=C(SCc3ccccc3Cl)N2C1=O (stereo not drawn),inactive: -23.2%
20,CCOC(=O)c1sc2ccccc2c1S(=O)(=O)NCc1ccc(F)cc1,inactive: -31%
21,CCOC(=O)c1ccc(NC(=O)CCn2cnnn2)cc1,inactive: 18.2%

row,SMILES,activation
1,COC(=O)c1cnc(N2CCN(c3ccccc3OC)CC2)c2ccccc12,inactive: 2.72%
2,COc1ccc(-c2cc(C(F)(F)F)n3nc(C(=O)Nc4cccc(C(F)(F)F)c4)c(Br)c3n2)cc1,inactive: -2.28%
3,CC1=C(c2ccc(Cl)cc2)S(=O)(=O)N=C1N1CCN(c2cccc(C(F)(F)F)c2)CC1,inactive: -10.5%
4,Nc1nc(N)nc(-c2cc(Cl)ccc2Cl)n1,inactive: -7.53%
5,O=C(NCc1ccccc1Cl)c1ccc(CSCc2cccc(F)c2)o1,inactive: -21.6%
6,Cc1ccc(-n2nnnc2CNC(=O)c2ccccc2F)cc1C,inactive: -4.71%
7,CCN1CCCC1CNC(=O)c1cc(S(=O)(=O)CC)c(N)cc1OC (stereo not drawn),inactive: 5.37% and inactive: -0.157%
8,Cc1ccc(NC(c2nnc(-c3ccccc3)o2)c2ccccc2F)c([N+](=O)[O-])c1 (stereo not drawn),inactive: -17.1%
9,O=C(Nc1c(C(=O)Nc2cccc(C(F)(F)F)c2)oc2ccccc12)c1cc(=O)c2ccccc2o1,inactive: -9.55%
10,Cc1cccn2c(=O)cc(COc3ccc(NC(=O)c4cccc(F)c4)cc3)nc12,inactive: -10.7%
11,CCC1CCCCN1C(=O)Cn1c(=O)n(CCCCCC(=O)NCc2ccc(F)cc2)c(=O)c2sccc21 (stereo not drawn),inactive: -9.21%
12,O=C(O)CCn1cnc2onc(-c3ccccc3Cl)c2c1=O,inactive: 0.576%
13,CCn1c(=O)c2cc(C(=O)NCCCN(C)Cc3ccccc3)sc2c2ccccc21,inactive: 38.4%
14,CCc1cccc(NC(=O)Cn2cc(C(=O)c3ccncc3)c(=O)c3cc(C)c(C)cc32)c1,inactive: -17.8%
15,O=C(NCc1ccc(Cl)cc1)c1ccc2c(c1)NC(=O)C(CS(=O)(=O)Cc1ccccc1Cl)N2 (stereo not drawn),inactive: -18.9%
16,CCOc1ccc(NC(=O)Cn2c(=O)n(CC3CCCO3)c(=O)c3ccccc32)cc1 (stereo not drawn),inactive: -3.31%
17,CCc1ccc(-n2nc(C)c3c(C)cc(=O)n(CC(=O)NCc4ccc(C)cc4)c32)cc1,inactive: 14.7%
18,CCc1ccc(NC(=O)CSc2nc(C)cc(COC)c2C#N)cc1,inactive: 26%
19,CCCCCCc1cc2cc(-c3nnc(-c4ccc(C)cc4)o3)c(=O)oc2cc1O,inactive: 42.7%
20,CC(C)CCNc1nc2c(S(=O)(=O)c3ccc(Br)cc3)nnn2c2ccsc12,inactive: -13.4%
21,O=C(NCc1cccnc1)C(=O)NCC(c1cccnc1)N1CCN(c2ccccc2)CC1 (stereo not drawn),inactive: -4.89%

row,SMILES,activation
1,CCc1cc2c(cc3c(=O)n(CC(=O)N4CCN(c5cc(Cl)ccc5C)CC4)nc(CC)n32)s1,inactive: -14.3%
2,O=C(NCc1ccccc1)C1CCN(C(=O)c2cnn(-c3ccccc3)c2-n2cccc2)CC1,inactive: -18.2%
3,C=Cc1ccc(Cn2c(=O)n(-c3ccc(C)cc3)c(=O)c3c2c2cc(OC)ccc2n3C)cc1,inactive: -8.48%
4,CCOc1ccc2nc(N3CCCC(C(=O)NCc4ccccc4Cl)C3)sc2c1 (stereo not drawn),inactive: -15.8%
5,COc1ccc2cc(C(=O)NCc3ccc4c(c3)CCN4C(=O)c3ccc(C)cc3)[nH]c2c1,inactive: -17.3%
6,CC1=C(C(=O)Nc2ccc(C)cc2C)C(c2cccn2C)n2ncnc2N1 (stereo not drawn),inactive: 5.89%
7,CC(=O)Nc1nnc(SCc2cc(=O)c3cccc(C)c3[nH]2)s1,inactive: 5.52%
8,Cc1ccc(C)c(Cn2c(C)c(CNCc3ccc(F)cc3)c(C(=O)O)c2C)c1,inactive: -3.14%
9,COc1ccc(CCNC(=O)CCCCCn2c(=O)[nH]c3cc(OC)c(OC)cc3c2=O)cc1OC,inactive: -0.0616%
10,CCc1ccc(C2=CC(c3cccc(Br)c3)n3nnnc3N2)cc1 (stereo not drawn),inactive: -40.5%
11,Cc1ccc2c(c1)c(=O)c(C(=O)c1ccncc1)cn2CC(=O)Nc1ccccc1Cl,inactive: -4.42%
12,NC(N)=NCCN1CCCCCCC1,inactive: -13.5%
13,Cc1ccc(C)c(N2CCN(c3nc4ccccc4c4nc(-c5cccnc5)nn34)CC2)c1,inactive: 29.2%
14,CCOC(=O)c1cccc(NC(c2nnc(-c3ccccc3)o2)c2ccccc2F)c1 (stereo not drawn),inactive: -17.3%
15,CC(C)C(=O)Nc1cccc(NC2=NS(=O)(=O)c3ccccc32)c1,inactive: 11%
16,Cc1ccc(CNC(=O)C2CCCN(c3nnc(-n4c(C)ccc4C)s3)C2)cc1 (stereo not drawn),inactive: -33.4%
17,CCc1ccc(NC(=O)Cn2c(=O)oc3cc(S(=O)(=O)NCc4ccccc4)ccc32)cc1,active: 73.3%
18,COc1ccc(NC(=O)CSc2nc(O)c(C/C=C/c3ccccc3)c(=O)[nH]2)cc1,inactive: -4.57%
19,CSc1ccc(CCNC(=O)CCc2c(C)nc3cc(-c4ccccc4)nn3c2C)cc1,inactive: -3.69%
20,CCOc1ccc(/C=C/c2nc(C#N)c(Nc3ccc(OC)cc3)o2)cc1,inactive: -15.1%
21,CCCOc1ccc(CN(C(=O)c2nc(SC(C)C)ncc2Cl)C2CCS(=O)(=O)C2)cc1 (stereo not drawn),inactive: -16.3%

row,SMILES,activation
1,N#Cc1ccccc1Cn1c(=O)n(Cc2ccc(C(=O)NC3CCN(Cc4ccccc4)CC3)cc2)c(=O)c2ccccc21,inactive: -6.17%
2,O=C(Nc1c(C(=O)Nc2cccc(F)c2)oc2ccccc12)c1cc2ccccc2o1,inactive: 1.49%
3,Fc1ccc(-c2ccc(CNCCSc3nnnn3-c3ccccc3)o2)cc1Cl,inactive: 22.8%
4,COc1cc2[nH]c(=O)n(CCCCCC(=O)NCCc3ccccc3)c(=O)c2cc1OC,inactive: 9.27%
5,CCNC(=O)c1ccc2nc(Cc3ccccc3)oc2c1,inactive: -3.64%
6,CCOC(=O)c1c(NC(=O)COc2cccc(C(F)(F)F)c2)sc2c1CCCCC2,inactive: -0.293%
7,CC(C)COc1ccc(C(=O)N2CCN(CCc3ccccn3)CC2)cc1,inactive: 9.75%
8,O=C(CSc1ncc(CO)n1Cc1ccccc1)Nc1ccc(C(F)(F)F)cc1,active: 118%
9,COc1cccc(C2c3c(-c4ccccc4O)n[nH]c3C(=O)N2CCc2ccc(OC)c(OC)c2)c1 (stereo not drawn),inactive: -6.04%
10,O=C(Nc1nnc(S(=O)(=O)N2CCc3ccccc32)s1)c1ccccc1,inactive: 43.6%
11,CCOc1nc(-c2ccc(C)cc2)ccc1-c1noc(-c2ccccc2F)n1,inactive: -2.91%
12,Cc1ccc(-c2nc3ccc(Cl)cn3c2Nc2ccc3c(c2)OCCO3)s1,inactive: 6.49%
13,COc1ccc(CNC(=O)CN2C(=O)CCCc3ccccc32)cc1,inactive: -4.44%
14,CCN(CC)S(=O)(=O)c1ccc2oc(C(=O)Nc3ccc(Br)cc3F)c(C)c2c1,inactive: -2.7%
15,Cc1ccc(Sc2c(C(=O)NCc3ccccc3C)[nH]c3ccccc23)cc1,inactive: -7.44%
16,COc1cc(NC(=O)c2cnc3c(-c4ccc(F)cc4)c(C)nn3c2C)cc(OC)c1,inactive: -24.2%
17,CCc1ccc(-c2nc(-c3cc4ccccc4oc3=O)sc2C)cc1,inactive: -8.47%
18,CCn1c(C(=O)Nc2cc(Cl)ccc2C)cc2sc(Cl)cc21,inactive: -14.6%
19,CCOc1ccc(CCNC(=O)Cn2ncn3c(cc4ccccc43)c2=O)cc1OCC,inactive: -4.58%
20,COc1ccc(NC(=O)CC(C)n2nc(C)cc2C)cc1Cl (stereo not drawn),inactive: -12.5%
